# ± gives the standard deviation of the averaged measurements. Over roughly 33,000 sequences, “E-score (dimensionless, -0.5 to 0.5)” has its median near -0.049; the highest 2% begin near 0.37. The list shows a part of the results.
# System: T1, PmTbr T-box DNA-binding domain (GST fusion)
# T1 sequence: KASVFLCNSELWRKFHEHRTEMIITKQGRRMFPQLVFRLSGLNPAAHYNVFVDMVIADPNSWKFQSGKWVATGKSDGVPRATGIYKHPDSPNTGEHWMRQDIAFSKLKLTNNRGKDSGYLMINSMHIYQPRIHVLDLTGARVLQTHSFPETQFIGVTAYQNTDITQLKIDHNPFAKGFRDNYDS
# Experiment: PBM E-score of 8-mer (E-score (dimensionless, -0.5 to 0.5)); Tbr is Tbrain of the sea star Patiria miniata (Pm) or the sea urchin Strongylocentrotus purpuratus (Sp); higher = stronger binding preference; most listed sequences are background and not binding sites
# Conditions: the construct has about 5 more residues each side
# Procedure, shortened: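 Expression of GST-fused Tbr T-box DNA-binding domains, each holding the full T-box plus roughly five flanking residues, was carried out in BL21 E. coli at 20 °C, with purification by glutathione affinity chromatography. Universal Agilent arrays made double-stranded by primer extension were incubated with the protein at 200 nM in PBS (pH 7.5), then scanned and quantified. All ungapped 8-mers were scored from probe intensities, and each received an enrichment E-score from the Universal PBM Analysis Suite, averaged over duplicate arrays.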
row,Sequence,PBM E-score of 8-mer
1,AAGTACTA,-0.155 ± 0.051
2,ACGCGTCA,0.2939 ± 0.001
3,GTCTGACA,0.158 ± 0.063
4,GAATCCGC,0.0547 ± 0.0039
5,TAACATCA,-0.0986 ± 0.04
6,ACCCAGGG,-0.0641 ± 0.035
7,CCGACCGC,-0.066 ± 0.048
8,TAGGACGA,-0.4379 ± 0.00091
9,AGACCGTG,0.0657 ± 0.023
10,ACGTGAGC,0.0549 ± 0.011
11,AATCTACT,-0.0512 ± 0.011
12,GCATCGAA,-0.239 ± 0.065
13,AGCTCGCC,-0.2 ± 0.14
14,GCATCACA,0.279 ± 0.0073
15,GTCTTGCA,-0.132 ± 0.069
16,GCCTACAC,0.112 ± 0.059
17,CTGCGGGA,-0.177 ± 0.0041
18,ATTCGTGG,-0.111 ± 0.019
19,TGCGTGAA,0.3679 ± 0.0033
20,CGAAACAG,-0.0622 ± 0.067
21,AACACCGA,0.234 ± 0.034
22,AAGGGGTA,-0.208 ± 0.017
23,CAGCTGTC,0.288 ± 0.017
24,AGGTGCAT,0.11 ± 0.017
25,GCTACCAC,0.146 ± 0.02

row,Sequence,PBM E-score of 8-mer
1,AACTCTCC,-0.0439 ± 0.048
2,AGACATGC,-0.0474 ± 0.0019
3,AGCCACAC,0.228 ± 0.058
4,AAACTCAT,-0.112 ± 0.0095
5,CGCAGATC,0.015 ± 0.0024
6,CGACTACG,0.124 ± 0.033
7,CTGATACA,-0.0621 ± 0.023
8,CGAGTCAA,-0.0592 ± 0.08
9,CGGCGCCG,0.15 ± 0.13
10,TAAACTCA,-0.159 ± 0.041
11,ATGCATGA,-0.078 ± 0.0099
12,CTAGACTC,-0.192 ± 0.01
13,AAGCCTAA,-0.215 ± 0.042
14,AAGTCTCC,-0.0144 ± 0.014
15,CATGAGCA,-0.109 ± 0.08
16,CAATTGTG,0.222 ± 0.022
17,ATACCGTC,-0.0027 ± 0.047
18,CTTCATTA,-0.249 ± 0.018
19,GGACCAAC,-0.124 ± 0.037
20,CGACATGA,0.028 ± 0.0062
21,TAGCTTCA,0.0195 ± 0.042
22,AGCTGACG,0.117 ± 0.011
23,ATATTCTA,-0.0286 ± 0.013
24,CTACTTCC,-0.204 ± 0.057
25,TAGTGATA,0.245 ± 0.035

row,Sequence,PBM E-score of 8-mer
1,CGAGGTAC,-0.1003 ± 0.00044
2,AAATGGGC,0.0759 ± 0.0097
3,CATATGTA,-0.109 ± 0.0059
4,CTGTCCTC,-0.0314 ± 0.051
5,GACGTAGC,-0.168 ± 0.026
6,ACGCTACG,0.0353 ± 0.01
7,GTCAGGTA,0.0624 ± 0.013
8,ATAGAGCA,-0.184 ± 0.078
9,GTATGTGA,0.22 ± 0.044
10,CGTAAACA,0.155 ± 0.03
11,ACACCCAG,0.339 ± 0.021
12,TCCCTTCA,0.102 ± 0.043
13,AACATCGG,-0.21 ± 0.035
14,AATAAGGG,-0.19 ± 0.032
15,CTATCCAA,-0.333 ± 0.077
16,GGCACCTA,0.412 ± 0.006
17,AGCATCTA,-0.0258 ± 0.033
18,CACATCGG,0.284 ± 0.015
19,AAACATTG,-0.0327 ± 0.00054
20,AGTAATTC,-0.1366 ± 0.00053
21,AGTCGAGC,0.0378 ± 0.032
22,AGAGAATA,-0.0684 ± 0.049
23,GTGCATTA,-0.00588 ± 0.016
24,GCAGCCTA,0.167 ± 0.073
25,TGTATACA,-0.276 ± 0.051

row,Sequence,PBM E-score of 8-mer
1,CGAATCCA,-0.0509 ± 0.0035
2,ATTTAAGC,-0.191 ± 0.065
3,ACTTTGAC,0.111 ± 0.0052
4,ATGAAGCA,-0.0951 ± 0.0093
5,ACTAGAAA,-0.177 ± 0.0096
6,AACCCAAC,0.0239 ± 0.013
7,GATTCCTA,-0.238 ± 0.055
8,TAGTCCCA,-0.27 ± 0.046
9,CATTAGCG,0.189 ± 0.014
10,AGCGCATG,-0.118 ± 0.031
11,AGAGATGA,-0.046 ± 0.098
12,AGCAGAAA,-0.0429 ± 0.043
13,ATGCTCAG,-0.141 ± 0.056
14,CTCAATAC,-0.265 ± 0.027
15,GTTCATGA,-0.122 ± 0.064
16,CATTTTGC,-0.00766 ± 0.017
17,CATCAACC,-0.196 ± 0.03
18,GGTCAACA,0.123 ± 0.0043
19,AACCAGCG,0.0116 ± 0.051
20,AGGGATAC,-0.319 ± 0.026
21,GTTGCTGA,0.0831 ± 0.0053
22,CCTTTTCC,0.00333 ± 0.0028
23,ACAAACAC,0.203 ± 0.025
24,AAACGAAC,0.02851 ± 0.00012
25,CGCTACCA,0.243 ± 0.024

row,Sequence,PBM E-score of 8-mer
1,GGAGATGA,-0.119 ± 0.023
2,TACGAGCA,-0.105 ± 0.018
3,GGTGATGA,0.343 ± 0.028
4,CAACACCA,0.392 ± 0.015
5,AGTCACGA,0.0948 ± 0.067
6,CCGGAGGC,-0.189 ± 0.097
7,CTCTCACA,0.3481 ± 0.0026
8,CGTTACTA,0.0165 ± 0.0058
9,CTGTGAGA,0.314 ± 0.0081
10,AAGCGCTC,-0.124 ± 0.013
11,GTGTGCCA,0.237 ± 0.025
12,AAGTCAAT,-0.196 ± 0.035
13,ATTATCCG,-0.0296 ± 0.042
14,ATTCCTAC,-0.269 ± 0.065
15,AAGACCGA,-0.165 ± 0.03
16,AGCGCTAT,0.0936 ± 0.018
17,GCAGTTCA,-0.17 ± 0.079
18,CGTTCTGA,-0.208 ± 0.056
19,CCGGGTTA,-0.275 ± 0.013
20,AGAACTCG,0.0872 ± 0.055
21,CAGGTTTC,-0.0284 ± 0.064
22,CTCATTCC,0.0476 ± 0.034
23,ACATACCA,0.144 ± 0.04
24,GGTCGGGA,-0.147 ± 0.05
25,CCGGATCG,-0.0164 ± 0.013

row,Sequence,PBM E-score of 8-mer
1,ACGTAACT,-0.0679 ± 0.011
2,AACGTTAT,-0.0689 ± 0.1
3,ATTGCGGG,-0.101 ± 0.024
4,AGTATTTG,-0.0153 ± 0.051
5,GATGACGC,0.195 ± 0.0088
6,AGAGCAAC,-0.135 ± 0.026
7,GAAAGACA,-0.129 ± 0.061
8,CGCATGGC,-0.0622 ± 0.09
9,CGGCAATC,0.00788 ± 0.053
10,TAGTAACA,0.0969 ± 0.045
11,AAATTGTA,-0.213 ± 0.025
12,GCAGCTTA,-0.0556 ± 0.0013
13,ACGAGTTA,0.111 ± 0.032
14,CCCCAAGA,-0.104 ± 0.019
15,AATGCCTC,-0.145 ± 0.012
16,CAGCCGTC,-0.0449 ± 0.12
17,ATTGTATG,-0.0862 ± 0.042
18,CGCTATTC,0.104 ± 0.0044
19,ATACCGCC,0.0278 ± 0.0085
20,ATCTGGCC,-0.345 ± 0.013
21,GTCTTGTA,-0.159 ± 0.026
22,TAATTGCA,-0.0324 ± 0.06
23,GTCTAGAC,-0.223 ± 0.085
24,CCTCCCAC,0.119 ± 0.033
25,TAATGGTA,-0.0259 ± 0.032

row,Sequence,PBM E-score of 8-mer
1,GTAAGTAC,-0.00138 ± 0.0093
2,CTTATGCA,-0.135 ± 0.047
3,ACCAAATC,0.0778 ± 0.041
4,AGATTACC,-0.262 ± 0.051
5,AGGTTCTC,0.0874 ± 0.028
6,CTTCGGCA,0.054 ± 0.018
7,GCCTGCTA,0.11 ± 0.017
8,CCACCCAC,0.153 ± 0.052
9,AGTGAGGC,0.0767 ± 0.038
10,AGCACGAA,0.0403 ± 0.025
11,TCAAACGA,-0.132 ± 0.04
12,GACATATA,-0.173 ± 0.057
13,TACTGCGA,0.149 ± 0.029
14,CACGGACA,0.222 ± 0.017
15,CATTTTAC,0.0972 ± 0.072
16,ATTCATTC,-0.223 ± 0.086
17,AGGCCCCT,-0.279 ± 0.0033
18,AGCCATAA,-0.149 ± 0.01
19,AGACATCC,-0.224 ± 0.039
20,GAGACTTA,-0.063 ± 0.0065
21,CTCCATGA,-0.245 ± 0.061
22,AAGCGTAA,-0.138 ± 0.09
23,ACGTGCAG,0.0746 ± 0.0073
24,GTTATGAA,-0.028 ± 0.039
25,CAATTGAA,-0.158 ± 0.077

row,Sequence,PBM E-score of 8-mer
1,CCGTTGCA,0.0392 ± 0.088
2,ACCTACCG,-0.0203 ± 0.078
3,CGCTGAAG,-0.0365 ± 0.0018
4,GAGTCATC,-0.175 ± 0.003
5,AACTCCTT,-0.105 ± 0.0098
6,CTGGATGC,0.0124 ± 0.0062
7,ATCAATTG,0.049 ± 0.095
8,GCCACCCA,0.0536 ± 0.024
9,ACCTCGCG,0.34924 ± 0.00023
10,CTCTTTGA,-0.03 ± 0.094
11,ATGAAGGA,-0.276 ± 0.028
12,CCTGATGA,0.0372 ± 0.038
13,AAGAATCG,-0.0615 ± 0.066
14,GACAACGC,0.2165 ± 0.00078
15,AGCGTCAG,-0.0271 ± 0.047
16,ACTTCGTA,0.0369 ± 0.042
17,ACTTACCC,0.0624 ± 0.018
18,TAAGCCGA,-0.153 ± 0.006
19,AAGTGAGC,0.1 ± 0.014
20,CCCACACA,0.17 ± 0.0076
21,ACGACCTG,0.00253 ± 0.052
22,GGGGATGA,-0.132 ± 0.022
23,GTAAGCTA,-0.266 ± 0.012
24,CAAACAAC,0.0609 ± 0.00083
25,ATAAACCC,-0.175 ± 0.015

row,Sequence,PBM E-score of 8-mer
1,ACTTCTGA,0.156 ± 0.038
2,ACTACCTC,-0.248 ± 0.022
3,CACAAAAA,0.196 ± 0.061
4,ATATGAAG,0.0923 ± 0.063
5,CACTAGCC,0.0461 ± 0.04
6,ATGTGCAA,0.226 ± 0.022
7,CATACCAG,0.06 ± 0.022
8,GCTGGTTA,-0.0863 ± 0.064
9,AAAGTTAG,0.165 ± 0.062
10,ATGTCGCC,0.0862 ± 0.038
11,AACAGCTC,0.224 ± 0.0067
12,GCGCCCCA,0.0233 ± 0.013
13,TAAGTAAA,0.0555 ± 0.012
14,AGGAAATG,-0.0436 ± 0.025
15,ACGATTAT,-0.0344 ± 0.11
16,AGCAGGTG,0.414 ± 0.026
17,AACCGCCT,-0.193 ± 0.051
18,CAGTTGCG,0.255 ± 0.011
19,AAGCTAAA,-0.155 ± 0.042

# Source: the supplement of paper PMC4166925
